Assay results: ChEMBL document CHEMBL5606458, “ASAP - ZIKV NS2B-NS3 protease fluorescence single point” (2024)
Among all 2,700 compounds or so, about 160 (5.9%) showed an effect of 50% or more. This is one part of the list.

Target: Nonstructural protein 3 (Zika virus) (UniProt A0A024AXB9)
[1] = PRVABC59, Concentration 50.0 uM, Number of replicates 1.0
[2] = PRVABC59, Concentration 15.0 uM, Number of replicates 1.0

Chain of UniProt A0A024AXB9 (A0A024AXB9 as listed by the source): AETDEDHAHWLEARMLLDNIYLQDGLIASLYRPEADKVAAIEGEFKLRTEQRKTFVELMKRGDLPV

## Nc1cccc2c(Cl)ccnc12
PRVABC59, Concentration 49.95 uM, Number of replicates 2.0, Standard deviation 13.26082141913299 %
  inhibition: 25%
PRVABC59, Concentration 99.9 uM, Number of replicates 2.0, Standard deviation 5.807935528538471 %
  inhibition: 61.3%

## Nc1ccc(C(=O)Nc2nc3ccccc3s2)cn1
PRVABC59, Concentration 49.5 uM, Number of replicates 2.0, Standard deviation 2.1780366832511766 %
  inhibition: 3.72%
PRVABC59, Concentration 99.01 uM, Number of replicates 2.0, Standard deviation 0.18481519512572567 %
  inhibition: 1.19%
PRVABC59, Concentration 198.0 uM, Number of replicates 2.0, Standard deviation 1.744814116442124 %
  inhibition: 7.22%

## COc1cc(CCNC(=O)C2CCN(c3ccc(C=O)cc3)CC2)cc(OC)c1
[1]
  inhibition: 22.2%

## O=Cc1ccc(N2CCC(C(=O)N(Cc3cccc(F)c3)C3CCCC3)CC2)cc1
[1]
  inhibition: 25.2%

## Cc1c(C(=O)N[C@@H](CO)CS(C)(=O)=O)ccc(O)c1NC(=O)c1ccncc1F
PRVABC59, Concentration 49.5 uM, Number of replicates 2.0, Standard deviation 1.9638256628693456 %
  inhibition: 0.432%
PRVABC59, Concentration 99.01 uM, Number of replicates 2.0, Standard deviation 3.3162227164860276 %
  inhibition: 1.85%
PRVABC59, Concentration 198.0 uM, Number of replicates 2.0, Standard deviation 3.3628572560592405 %
  inhibition: 4.7%

## NC(=O)[C@@H]1Cc2ccccc2CN1C(=O)C1CCN(c2ccc(C=O)cc2)CC1
[1]
  inhibition: 8.37%

## Cc1cc(Cl)c2cccc(N)c2n1
PRVABC59, Concentration 49.95 uM, Number of replicates 2.0, Standard deviation 7.781875381379218 %
  inhibition: 5.79%
PRVABC59, Concentration 99.9 uM, Number of replicates 2.0, Standard deviation 5.7320152302040395 %
  inhibition: 14.4%

## Cc1cc(CO)c2cccc(NC(=O)C3CC(N)C3)c2n1 (stereo unspecified)
PRVABC59, Concentration 49.95 uM, Number of replicates 2.0, Standard deviation 0.17303270644971713 %
  inhibition: 56.1%
PRVABC59, Concentration 99.9 uM, Number of replicates 2.0, Standard deviation 0.6659229038704304 %
  inhibition: 84.7%

## CNC(=O)CCNS(=O)(=O)c1ccc(Oc2ccccc2Cl)cc1
PRVABC59, Concentration 49.5 uM, Number of replicates 2.0, Standard deviation 0.6103677098553716 %
  inhibition: -1.45%
PRVABC59, Concentration 99.01 uM, Number of replicates 2.0, Standard deviation 1.2353674673512853 %
  inhibition: 0.707%
PRVABC59, Concentration 198.0 uM, Number of replicates 2.0, Standard deviation 0.9030098849248221 %
  inhibition: 3.94%

## O=Cc1ccc(N2CCC(C(=O)N3CCN(CCOc4ccccc4)CC3)CC2)cc1
[1]
  inhibition: 20.6%

## N#Cc1cnn(-c2ccccn2)c1NC(=O)C1CCN(c2ccc(C=O)cc2)CC1
[1]
  inhibition: 20%

## CC(C)(C)N(Cc1ccccc1)C(=O)C1CCN(c2ccc(C=O)cc2)CC1
[1]
  inhibition: 25.8%

## CS(=O)(=O)C1(CN2CC[C@H](c3c[nH]c4ccccc34)C2)CC1
PRVABC59, Concentration 49.5 uM, Number of replicates 2.0, Standard deviation 1.2618414939445093 %
  inhibition: -2.04%
PRVABC59, Concentration 99.01 uM, Number of replicates 2.0, Standard deviation 2.1347735965308954 %
  inhibition: 1.06%
PRVABC59, Concentration 198.0 uM, Number of replicates 2.0, Standard deviation 2.1770465694859586 %
  inhibition: 7.85%

## COc1ccc(OC)c(CN2CCN(C(=O)C3CCN(c4ccc(C=O)cc4)CC3)CC2)c1
[1]
  inhibition: 27%

## COc1ccc(CCCNC(=O)C2CCN(c3ccc(C=O)cc3)CC2)cc1
[1]
  inhibition: 20.6%

## O=C(c1cc(Cl)ccc1NS(=O)(=O)c1ccc(Oc2ccccc2Cl)cc1)N1CCN(Cc2cccc(F)c2)CC1
[2]
  inhibition: 15%

## Cc1cc(CO)c2cccc(C[C@H](NC(=O)CNC3CC3)C(=O)O)c2n1
PRVABC59, Concentration 49.95 uM, Number of replicates 2.0, Standard deviation 2.343473347487472 %
  inhibition: -9.73%
PRVABC59, Concentration 99.9 uM, Number of replicates 2.0, Standard deviation 1.6007878826619684 %
  inhibition: -6.1%

## Cc1nnccc1Cn1ncc(C2CCNCC2)c1C
PRVABC59, Concentration 49.5 uM, Number of replicates 2.0, Standard deviation 1.57987158185777 %
  inhibition: -0.339%
PRVABC59, Concentration 99.01 uM, Number of replicates 2.0, Standard deviation 0.7213753017219712 %
  inhibition: -1.09%
PRVABC59, Concentration 198.0 uM, Number of replicates 2.0, Standard deviation 0.5902161214705549 %
  inhibition: -1.89%

## Cn1cc(NC(=O)c2ccccc2C(F)(F)F)c(-c2cnc3cn(C)nc3c2)n1
PRVABC59, Concentration 49.5 uM, Number of replicates 2.0, Standard deviation 1.178216245940104 %
  inhibition: -2.01%
PRVABC59, Concentration 99.01 uM, Number of replicates 2.0, Standard deviation 1.4710675536718656 %
  inhibition: -2.29%
PRVABC59, Concentration 198.0 uM, Number of replicates 2.0, Standard deviation 1.7829883926731995 %
  inhibition: 0.77%

## Cc1nc(C(=O)N2CCC(n3cc(CN)nn3)CC2)c(Cc2ccccc2)s1
PRVABC59, Concentration 49.5 uM, Number of replicates 2.0, Standard deviation 0.17686621520287402 %
  inhibition: -2.1%
PRVABC59, Concentration 99.01 uM, Number of replicates 2.0, Standard deviation 0.23847116785318653 %
  inhibition: -1.95%
PRVABC59, Concentration 198.0 uM, Number of replicates 2.0, Standard deviation 0.041732481769759175 %
  inhibition: 0.471%

## CCn1ccnc(NCC(=O)c2c[nH]c3ccccc23)c1=O
PRVABC59, Concentration 49.5 uM, Number of replicates 2.0, Standard deviation 1.7965916884251514 %
  inhibition: -7.9%
PRVABC59, Concentration 99.01 uM, Number of replicates 2.0, Standard deviation 2.206637366063275 %
  inhibition: -9.28%

## Cc1nc(C2CCN(C(=O)c3ccn([C@H]4CCCNC4)n3)CC2)n[nH]1
PRVABC59, Concentration 49.5 uM, Number of replicates 2.0, Standard deviation 1.1522585919981234 %
  inhibition: -1.99%
PRVABC59, Concentration 99.01 uM, Number of replicates 2.0, Standard deviation 1.5159146664731555 %
  inhibition: -2.28%
PRVABC59, Concentration 198.0 uM, Number of replicates 2.0, Standard deviation 1.6936566931880859 %
  inhibition: -3.04%

## Cn1oc(C(=O)Nc2cc(Cl)cc(C(=O)NC(C)(C)CO)c2)cc1=O
PRVABC59, Concentration 49.5 uM, Number of replicates 2.0, Standard deviation 0.49453347143401666 %
  inhibition: 0.152%
PRVABC59, Concentration 99.01 uM, Number of replicates 2.0, Standard deviation 4.083705258559492 %
  inhibition: 4.33%
PRVABC59, Concentration 198.0 uM, Number of replicates 2.0, Standard deviation 1.0290099115968685 %
  inhibition: 3.63%

## [N-]=[N+]=NCCOCCOCCOCCNC(=O)C1CCN(c2ccc(C=O)cc2)CC1
[1]
  inhibition: 22.5%

## O=Cc1ccc(N2CCC(C(=O)N3CCC(O)(c4ccc(Cl)cc4)CC3)CC2)cc1
[1]
  inhibition: 20.5%

## CCOC(=O)c1coc(Cn2cc(C3CCNCC3)c(C)n2)n1
PRVABC59, Concentration 49.5 uM, Number of replicates 2.0, Standard deviation 2.7013392036203805 %
  inhibition: 2.91%
PRVABC59, Concentration 99.01 uM, Number of replicates 2.0, Standard deviation 3.7617734682921835 %
  inhibition: 6.05%
PRVABC59, Concentration 198.0 uM, Number of replicates 2.0, Standard deviation 0.5886748112205115 %
  inhibition: 11.1%

## O=Cc1ccc(N2CCC(C(=O)N[C@@H](CCO)c3ccccc3F)CC2)cc1
PRVABC59, Concentration 10.0 uM, Number of replicates 1.0
  inhibition: 19.1%

## Cn1cc(CNC(=O)c2ccccc2-c2cccnc2)cn1
PRVABC59, Concentration 49.5 uM, Number of replicates 2.0, Standard deviation 0.5877340250731194 %
  inhibition: 0.299%
PRVABC59, Concentration 99.01 uM, Number of replicates 2.0, Standard deviation 0.42986369479040104 %
  inhibition: -0.679%
PRVABC59, Concentration 198.0 uM, Number of replicates 2.0, Standard deviation 0.566811449656849 %
  inhibition: -0.69%

## CC(=O)Nc1cccc(CNC(=O)c2cc(Cl)ccc2NS(=O)(=O)c2ccc(Oc3ccccc3Cl)cc2)c1
[2]
  inhibition: 28.4%

## O=C(c1cc(Cl)ccc1NS(=O)(=O)c1ccc(Oc2ccccc2Cl)cc1)N1CCN(c2cccc([N+](=O)[O-])c2)CC1
[2]
  inhibition: 15.2%

## Cc1cc(CO)c2cccc(Cc3cccc(NC(=O)Cc4c[nH]c5ccccc45)c3)c2n1
PRVABC59, Concentration 49.95 uM, Number of replicates 2.0, Standard deviation 1.6337816579349032 %
  inhibition: -0.245%
PRVABC59, Concentration 99.9 uM, Number of replicates 2.0, Standard deviation 1.6490504074791872 %
  inhibition: 3.2%

## COc1cc(NC(=O)c2cc(Cl)ccc2NS(=O)(=O)c2ccc(Oc3ccccc3Cl)cc2)c(Cl)cc1Cl
[2]
  inhibition: 35%

## c1ccc2c([C@H]3CCN(Cc4cn[nH]c4)C3)c[nH]c2c1
PRVABC59, Concentration 49.5 uM, Number of replicates 2.0, Standard deviation 2.1709874542503353 %
  inhibition: -0.564%
PRVABC59, Concentration 99.01 uM, Number of replicates 2.0, Standard deviation 1.6562600473854607 %
  inhibition: 2.06%
PRVABC59, Concentration 198.0 uM, Number of replicates 2.0, Standard deviation 0.319628886464673 %
  inhibition: 9.79%

## O=C(Nc1ccc2c(c1)OCCO2)c1cc(Cl)ccc1NS(=O)(=O)c1ccc(Oc2ccccc2Cl)cc1
[2]
  inhibition: 63.8%

## O=Cc1ccc(N2CCC(C(=O)N(Cc3ccc4c(c3)OCO4)C3CCCC3)CC2)cc1
[1]
  inhibition: 26.1%

## Cc1cc(CO)c2cccc(Cc3cccc(NC(=O)c4nc(C5CCNCC5)oc4C)c3)c2n1
PRVABC59, Concentration 49.95 uM, Number of replicates 2.0, Standard deviation 2.83494201600161 %
  inhibition: -5.64%
PRVABC59, Concentration 99.9 uM, Number of replicates 2.0, Standard deviation 2.936734747350333 %
  inhibition: -6.74%

## O=C(c1cc(Cl)ccc1NS(=O)(=O)c1ccc(Oc2ccccc2Cl)cc1)N(Cc1cnn(-c2ccccc2)c1)C1CC1
[2]
  inhibition: 16.6%

## O=C(Cc1cc2ccccc2[nH]1)NCc1cn2ccccc2n1
PRVABC59, Concentration 49.5 uM, Number of replicates 2.0, Standard deviation 4.515339500308987 %
  inhibition: -3.51%
PRVABC59, Concentration 99.01 uM, Number of replicates 2.0, Standard deviation 4.899993619400904 %
  inhibition: -2.4%
PRVABC59, Concentration 198.0 uM, Number of replicates 2.0, Standard deviation 5.002439458314153 %
  inhibition: -0.18%
